Test results: US20040142862A1, “Methods and compositions for modulating agonist-induced downregulation of G protein-coupled receptors” (The Regents of the University of California, priority 2002, published 2004)

Biological target: T1, alpha-2B adrenergic receptor (Homo sapiens, UniProt P18089)
T1 construct: GST; made in house
Experiment: GST affinity chromatography, binding to alpha-2B adrenergic receptor tail
Conditions: in vitro, GST fusion, not shown
Procedure: The ability of GASP1 to modulate the endocytic sorting of other (non-opioid) GPCRs was examined next. […] The lack of GASP1 interaction with the V2 receptor tail is consistent with the remarkable ability of these receptors to remain in endocytic vesicles for a prolonged period of time after endocytosis without undergoing any detectable downregulation (34).
24. Affinity chromatography was carried out as previously described (25).

T1 sequence (P18089 429-450 limits assumed, species assumed): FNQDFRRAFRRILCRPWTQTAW

B1: cGASP1: carboxyl-terminal fragment of the GASP1 protein, corresponding to the C-terminal 497 residues of GASP1 (protein)
chain: SETEEETIFGSWFWDGKEVSEEAGPCCVSKPEDDEEMIVESWFWSRDKAIKETGTVATCESKPENEEGAIVGSWFEAEDEVDNRTDNGSNCGSRTLADEDEAIVGSWFWAGDEAHFESNPSPVFRAICRSTCSVEQEPDPSRRPQSWEEVTVQFKPGPWGRVGFPSISPFRFPKEAASLFCEMFGGKPRNMVLSPEGEDQESLLQPDQPSPEFPFQYDPSYRSVQEIREHLRAKESTEPESSSCNCIQCELKIGSEEFEELLLLMEKIRDPFIHEISKIAMGMRSASQFTRDFIRDSGVVSLIETLLNYPSSRVRTSFLENMIRMAPPYPNLNIIQTYICKVCEETLAYSVDSPEQLSGIRMIRHLTTTTDYHTLVANYMSGFLSLLATGNAKTRFHVLKMLLNLSENLFMTKELLSAEAVSEFIGLFNREETNDNIQIVLAIFENIGNNIKKETVFSDDDFNIEPLISAFHKVEKFAKELQGKTDNQNDPEGDQEN
  binding to the alpha-2B adrenergic receptor tail: interacted
